# The list shows a part of the results. Many values rest on one well or one pass, so single values are uncertain.
# Experiments:
# Assay in all cases: cell count relative to DMSO control; melanoma cells; higher = more viable cells
# Conditions in all cases: library dose: standard library concentration; 72 h
# G361 = test system: G361
# IPC-298 = test system: IPC-298
# IST-MEL1 = test system: IST-MEL1
# LB2518-MEL = test system: LB2518-MEL
# LOXIMVI = test system: LOXIMVI
# MEL-HO = test system: MEL-HO
# MZ2-MEL = test system: MZ2-MEL
# MeWo = test system: MeWo
# RPMI7951 = test system: RPMI7951
# RVH-421 = test system: RVH-421
# SkMel28 = test system: SkMel28
# SkMel2 = test system: SkMel2
# SkMel30 = test system: SkMel30
# SkMel5 = test system: SkMel5
# UACC257 = test system: UACC257
# UACC62 = test system: UACC62
# WM115 = test system: WM115
# WM1716 = test system: WM1716
# WM1745 = test system: WM1745
# WM3526 = test system: WM3526
# 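Further: cells treated in 1,536-well plates, then fixed and DAPI-stained, with nuclei counted from automated high-throughput microscope images.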
Structure (SMILES),cell count (G361) [%],cell count (IPC-298) [%],cell count (IST-MEL1) [%],cell count (LB2518-MEL) [%],cell count (LOXIMVI) [%],cell count (MEL-HO) [%],cell count (MZ2-MEL) [%],cell count (MeWo) [%],cell count (RPMI7951) [%],cell count (RVH-421) [%],cell count (SkMel28) [%],cell count (SkMel2) [%],cell count (SkMel30) [%],cell count (SkMel5) [%],cell count (UACC257) [%],cell count (UACC62) [%],cell count (WM115) [%],cell count (WM1716) [%],cell count (WM1745) [%],cell count (WM3526) [%]
"Nc1ccn([C@@H]2O[C@H](CO)[C@@H](O)C2(F)F)c(=O)n1 [gemcitabine] + Cc1nc(Nc2ncc(C(=O)Nc3c(C)cccc3Cl)s2)cc(N2CCN(CCO)CC2)n1 [dasatanib] (first compound 0.002 µM, partner dose 0.02 µM)",33.5,53.1,39.3,63.8,29.3,49.5,58.3,40.3,40.3,106,89.7,105,103,72.6,78.8,65.2,50.8,50.1,35.7,105
"CC(=O)c1c(C)c2cnc(Nc3ccc(N4CCNCC4)cn3)nc2n(C2CCCC2)c1=O [palbociclib] + Cc1ccc(NC(=O)c2cccc(N(C)C)c2)cc1NC(=O)c1ccc(O)cc1 [ZM336372] (first compound 0.2 µM, partner dose 10 µM)",64.2,80.9,62.1,68.8,87.4,88.3,74.8,55.9,66.3,59.5,29.7,62.8,75.6,47.9,74.5,60.4,54,42.1,130,47.6
"Nc1nc(F)nc2c1ncn2[C@@H]1O[C@H](CO)[C@@H](O)[C@@H]1O [fludarabine] + Cn1c(Nc2ccc(C(F)(F)F)cc2)nc2cc(Oc3ccnc(-c4ncc(C(F)(F)F)[nH]4)c3)ccc21 [CHIR265] (first compound 1 µM, partner dose 0.4 µM)",28.6,40.3,64.8,29.8,52.4,45.3,51.1,65,29.7,38.9,3.08,1.19,16,30.7,30.6,24.3,37.1,60.5,42.1,21.9
"Nc1nc(F)nc2c1ncn2[C@@H]1O[C@H](CO)[C@@H](O)[C@@H]1O [fludarabine] + CN(C)S(=O)(=O)c1ccc2c(c1)/C(=C/c1cc3c([nH]1)CCCC3)C(=O)N2 [SU6656] (first compound 1 µM, partner dose 2 µM)",67,77.3,61.7,67.7,93.3,77.3,86.5,71,51.6,92.6,1.57,2.24,17.9,34.1,35,59.5,45.6,58.4,69.2,18.3
"Nc1ccn([C@@H]2O[C@H](CO)[C@@H](O)C2(F)F)c(=O)n1 [gemcitabine] + NC(=O)Nc1cc(-c2cccc(F)c2)sc1C(=O)N[C@H]1CCCNC1 [AZD7762] (first compound 0.002 µM, partner dose 0.1 µM)",12.2,22.9,25.3,37.9,24.1,20.7,58.6,18.7,12,55.7,46.2,83,89.9,27.9,107,55.9,34.5,21.4,23.1,45.2
"Nc1ncn([C@H]2C[C@H](O)[C@@H](CO)O2)c(=O)n1 [decitabine] + NCC(=O)Nc1ccc(-n2nc(C(F)(F)F)cc2-c2ccc3c(ccc4ccccc43)c2)cc1 [OSU03012] (first compound 0.5 µM, partner dose 5 µM)",87.9,51.3,79.7,70.6,69.3,66.6,89.7,64.2,52.6,72.1,26.6,46.2,30.6,63.7,73.2,57.2,65.6,74.9,104,52.8
"CC(=O)c1c(C)c2cnc(Nc3ccc(N4CCNCC4)cn3)nc2n(C2CCCC2)c1=O [palbociclib] + CC(C)(C)c1cnc(CSc2cnc(NC(=O)C3CCNCC3)s2)o1 [SNS-032] (first compound 0.2 µM, partner dose 0.05 µM)",80,90.8,69.5,57.3,53.6,88.8,77.1,44.6,57.8,76.7,42.4,56.8,62.7,41.1,77,66.7,55.5,47.4,78.5,47.2
"CC(=O)O[C@@]12CO[C@@H]1C[C@H](O)[C@@]1(C)C(=O)[C@H](O)C3=C(C)[C@@H](OC(=O)[C@H](O)[C@@H](NC(=O)OC(C)(C)C)c4ccccc4)C[C@@](O)([C@@H](OC(=O)c4ccccc4)[C@H]21)C3(C)C [Docetaxel] + CN(C)S(=O)(=O)c1ccc2c(c1)/C(=C/c1cc3c([nH]1)CCCC3)C(=O)N2 [SU6656] (first compound 0.0005 µM, partner dose 2 µM)",21.3,45,29.6,46.9,66.9,47,48.7,26.8,30.9,53.4,31,29.5,51.8,38,59.9,55.4,35.1,36.4,37.2,35.7
"Nc1ncn([C@H]2C[C@H](O)[C@@H](CO)O2)c(=O)n1 [decitabine] + OCCn1cc(-c2cnc3nnn(Cc4ccc5ncccc5c4)c3n2)cn1 [PF04217903] (first compound 0.5 µM, partner dose 5 µM)",78.5,81.2,89.9,75.6,85.4,85.3,108,68.3,103,88.9,52,93.6,94.7,76.2,106,74.2,61.9,67.1,124,88.1
"CO[C@H]1C[C@@H]2CC[C@@H](C)[C@@](O)(O2)C(=O)C(=O)N2CCCC[C@H]2C(=O)O[C@H]([C@H](C)C[C@@H]2CC[C@@H](OCCO)[C@H](OC)C2)CC(=O)[C@H](C)/C=C(\C)[C@@H](O)[C@@H](OC)C(=O)[C@H](C)C[C@H](C)/C=C/C=C/C=C/1C [everolimus] + C=CCn1c(=O)c2cnc(Nc3ccc(N4CCN(C)CC4)cc3)nc2n1-c1cccc(C(C)(C)O)n1 [MK1775] (first compound 0.1 µM, partner dose 0.1 µM)",52.7,58.8,77.7,49.9,60.4,64.5,80.7,55,75.9,87.7,26.1,57.8,50.4,51,76.8,71.6,42.3,68.2,70.4,62.6
"Nc1nc(F)nc2c1ncn2[C@@H]1O[C@H](CO)[C@@H](O)[C@@H]1O [fludarabine] + O=C(Nc1cccc(Cl)c1)Nc1ncc(CCNc2ncnc3ccsc23)s1 [SNS314] (first compound 1 µM, partner dose 0.004 µM)",62.9,62.5,46.4,73.6,74.3,73.2,78.9,73.2,58,59,3.01,2.37,22.5,24.5,36.3,73.9,48.6,55.4,62.3,26.8
"Nc1nc(F)nc2c1ncn2[C@@H]1O[C@H](CO)[C@@H](O)[C@@H]1O [fludarabine] + O=C(O)c1ccc(-c2c[nH]c3ncc(-c4ccccc4)cc23)cc1C1CCCC1 [GSK650394] (first compound 1 µM, partner dose 0.8 µM)",53.1,75.5,51.4,67.7,87,69,95.7,94.2,48.3,77.2,2.42,1.1,19.4,31.4,35.8,61.6,78.6,76.4,93.8,20.2
"CC(=O)c1c(C)c2cnc(Nc3ccc(N4CCNCC4)cn3)nc2n(C2CCCC2)c1=O [palbociclib] + OCc1c[nH]c2ccccc12 [Indole-3-carbinol] (first compound 0.2 µM, partner dose 4 µM)",90.1,78.2,101,93.1,85.9,99.6,84.1,92.9,77.4,81.5,61.5,90.8,101,85.8,76.6,70.8,81,46.6,87.7,89.8
"CC(=O)O[C@@]12CO[C@@H]1C[C@H](O)[C@@]1(C)C(=O)[C@H](O)C3=C(C)[C@@H](OC(=O)[C@H](O)[C@@H](NC(=O)OC(C)(C)C)c4ccccc4)C[C@@](O)([C@@H](OC(=O)c4ccccc4)[C@H]21)C3(C)C [Docetaxel] + CC(C)(C)c1cnc(CSc2cnc(NC(=O)C3CCNCC3)s2)o1 [SNS-032] (first compound 0.0005 µM, partner dose 0.05 µM)",15.8,56,40.6,41,51.7,43.2,49.8,22,17.7,82.7,27.9,15.3,80.6,25,53.4,50.3,42.8,37.5,39.3,34.2
"Nc1nc(F)nc2c1ncn2[C@@H]1O[C@H](CO)[C@@H](O)[C@@H]1O [fludarabine] + COc1ccc(Cl)c(Nc2nc3ccccc3nc2NS(=O)(=O)c2cccc(NC(=O)C(C)(C)N)c2)c1 [XL147] (first compound 1 µM, partner dose 4 µM)",71.8,57.3,64.7,75.8,126,63.3,82.6,83.4,75.6,81.2,5.85,3.1,23.3,21.5,41,62.7,107,84,108,24.9
